# Results from the supplement of paper PMC11417369.
# Some of the results follow.
# Tested on: PF3D7_0420300 AP2 domain 1 (GST-tagged)
# Test: gcPBM binding intensity (ln(normalized median fluorescence intensity)); higher = stronger DNA binding
# Method in brief: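 Using an Agilent 4 × 180k array, primer-extended double-stranded 36-bp intergenic genomic probes and negative controls were exposed for 1 h to GST-fused P. falciparum DNA-binding domains expressed in E. coli. Binding was carried out in 1× PBS with 1% milk, 0.2 mg/ml BSA, 0.5% salmon testes DNA and 0.03% Triton X-100, and protein was detected with Alexa488 anti-GST antibody and a 488 nm scan. Binding intensity is the highest Masliner-normalised natural-log median intensity across replicate spots of either probe orientation.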
row,Sequence,gcPBM binding intensity (ln)
1,AGGTTATAATTGTTTTCACACATTTAAAAATGTTAT [CACACA_site5097],9.39
2,TTAACTTATTTGTAAAGTACATTAATAAAAAGAAAA [XGTACX_site1588],8.76
3,GACTACACACAAGGGTGTACATATATATTATATATA [XGTACX_site2247],9.44
4,TTATATATTTCTATTGCACACTATATTTTATGAAGA [CACACA_site2910],9.32
5,AATAAATAAATAAATATATATATATATATATATATA [CACACA_negctrl_site708],8.86
6,ATATATATATATAATGCACACATTATAAATTATGTA [CACACA_site5802],9.18
7,TGTATATACATAAAGTGTACGTATATTTATATATAT [XGTACX_site4320],9.17
8,TATTTTTATTTTACATTATTTGTTTATAATTCTTAA [CACACA_negctrl_site1358],9.27
9,AAAAAAAAAAAAAACACACAAACAAATGAATAAATA [CACACA_site3300],9.77
10,GAGTTTTAATGTAATAGTACTTTAATTATTATATAT [XGTACX_site4527],9.37
11,TTTTTTTTTTATTCATGTACGTATTTAAATAATTCT [XGTACX_site2651],9.22
12,ATCTTTTATATATTCACACATAAAATTATACAGATA [CACACA_site5277],9.26
13,GACAAATGAAAAGATTGTACATGTATTTGAAGATTA [XGTACX_site6775],9.15
14,TACACAAAAATTTATACACACACATATATAATATAT [CACACA_site7931],9.98
15,TGATTATATATAAATGTATGCATGTCTATTATGCTA [TGCATGCA_site543],9.03
16,TCTTTTATATTTTTTTGTACACAAGAATAAAGAAAA [XGTACX_site3394],8.86
17,TATATATATATATATTGTACACATACATGTAGTTTT [XGTACX_site4848],9.46
18,TATATATATATATAGGTGCAATATTGAAAAAATATC [GTGCAC_site9535],9.42
19,AAAGTAATATATAATACATGCGTAAATATTTATGTA [TGCATGCA_site254],9.31
20,TCTTCTTTAAAAGAGGTGCACTATATAATGTGATTA [GTGCAC_site9431],8.97
21,TAATTATACTTATTTTGTACGCAATATTTAAAATAA [XGTACX_site8516],9.02
22,ATTTCTCTATCGTAATGTACAAAAAAAAGGAAAAAA [XGTACX_site1323],9
23,ACATATAAATGATATGTACACACATTTATATATATA [CACACA_site9152],9.45
24,TTTTTAACGTATAAGGTGCACTGTATATGGTACTCA,9.1
25,TTTTGGATGAACAGTACATGCAAAAACAAACTTGTA [TGCATGCA_site16],9.03
